Data: the supplement of paper PMC3334620
Over roughly 33,000 sequences, “E-score (-0.5 to 0.5)” has its median near -0.017; the highest 2% begin near 0.3. Some of the results follow.

target: T1, Sut1 (UniProt P53032); assay: PBM E-score (8-mer binding enrichment) (E-score (-0.5 to 0.5)); higher = stronger / more preferred TF binding; most listed sequences are background and not binding sites; details: protein concentration: 200 nM; construct: GST-full length
T1 sequence: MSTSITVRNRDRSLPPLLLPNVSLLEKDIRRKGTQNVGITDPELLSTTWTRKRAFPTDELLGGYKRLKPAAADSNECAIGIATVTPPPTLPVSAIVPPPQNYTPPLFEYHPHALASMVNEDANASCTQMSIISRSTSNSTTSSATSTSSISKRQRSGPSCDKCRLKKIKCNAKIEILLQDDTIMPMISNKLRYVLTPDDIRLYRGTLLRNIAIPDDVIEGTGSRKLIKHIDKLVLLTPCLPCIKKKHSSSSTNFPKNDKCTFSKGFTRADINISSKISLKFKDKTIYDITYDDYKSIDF
In short: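 Detection of bound protein used fluorescent anti-GST, with scans normalised by masliner. The proteins were GST-tagged yeast transcription factors applied at about 100-200 nM to universal all-10-mer Agilent arrays made double-stranded by primer extension. Each ungapped eight-base word, pooled with its reverse complement, was scored with an E-score from the Universal PBM Analysis Suite.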

| Sequence | PBM E-score |
| --- | --- |
| AGGCGTAA | 0.0295 |
| AAGGCATG | -0.119 |
| CGCATACC | -0.118 |
| CCAACGTC | -0.231 |
| CCTTCTCC | 0.0483 |
| AACGAAGC | 0.0071 |
| CGACACGA | -0.0752 |
| CTCAATTA | 0.0777 |
| CTAATAAG | 0.0561 |
| ACCTGCAT | -0.0248 |
| AGGCAGTC | -0.102 |
| GGTCCGCA | 0.241 |
| ATCCTCAT | -0.0846 |
| AGTGTTAG | 0.0669 |
| TCAGGCCA | -0.26 |
| CCACGGCA | -0.014 |
| AGTCATTG | -0.029 |
| ATACCTTA | 0.146 |
| TAAGGCAA | -0.0343 |
| AGATACCA | 0.0776 |
| CCATGTAA | -0.0163 |
| AGCGGAAA | 0.244 |
| ACTCTCAT | 0.0885 |
| ACAGGGAG | -0.199 |
| GGCTGTCA | -0.294 |

| Sequence | PBM E-score |
| --- | --- |
| AGTGCAGG | -0.18 |
| CCGAACTC | 0.172 |
| ACTGAAGA | 0.146 |
| AGCCGTTG | -0.0555 |
| AGGGGGAG | -0.31 |
| CCGTTGCC | -0.169 |
| CCCGGCGC | -0.178 |
| ATCTGAAT | 0.109 |
| ACCAATTG | -0.0713 |
| ATCTGCGG | -0.143 |
| CTCACAGC | -0.051 |
| CACCGAAA | 0.137 |
| ATCCCCAG | -0.25 |
| ACGCCTCC | -0.0188 |
| AGAACCGG | 0.127 |
| AAATCCTA | 0.175 |
| ACCCGACG | -0.111 |
| GCGCCTAA | 0.0199 |
| ACTAACCA | 0.204 |
| CATAGGAG | -0.164 |
| AGAGATTA | -0.0385 |
| AATCTTAC | 0.183 |
| AGTCCATA | 0.034 |
| CGGCAGCC | -0.0872 |
| ACTCGGCT | -0.079 |

| Sequence | PBM E-score |
| --- | --- |
| GATCCGAC | -0.0112 |
| CATGGTGG | -0.223 |
| GCAGACCC | -0.169 |
| CGTATTCC | 0.171 |
| AAGCACAT | 0.112 |
| CTTTCCAA | -0.0248 |
| AGACGTCA | -0.166 |
| AACTCGGA | 0.341 |
| AGCTTGCA | -0.046 |
| AGTCTTAC | -0.0131 |
| ACGTCCGA | 0.149 |
| CACGAGCC | -0.162 |
| AAGTTTGA | 0.2 |
| AATCGTGT | 0.0751 |
| AAGATGTC | 0.0299 |
| AACGCACG | 0.108 |
| TCACACAA | -0.13 |
| GAATCTGA | -0.0564 |
| ACAATTTA | 0.217 |
| GGCAGCAA | -0.129 |
| AATCCCGG | 0.12 |
| GCGAACGA | 0.0664 |
| CTTCTGCA | -0.0521 |
| GGCCGGCC | -0.0421 |
| ACACCCTC | -0.249 |

| Sequence | PBM E-score |
| --- | --- |
| ATGCGACA | -0.162 |
| CTCCAGGC | -0.26 |
| CTTGCGGC | -0.136 |
| CCCTATCA | -0.141 |
| ACCTATGA | -0.184 |
| ACAATTGT | 0.0951 |
| AACCACTC | -0.0747 |
| AGTAACCA | 0.0894 |
| AAGCATCT | -0.0157 |
| CGAGCGAC | -0.00351 |
| AACTAACA | 0.0858 |
| GTCAGTAA | 0.0392 |
| AATATCCG | 0.233 |
| AGAGCTAT | -0.27 |
| ACCGGAAG | 0.29 |
| GTCTACAC | -0.0486 |
| CCTACTGC | -0.18 |
| CATCCCTA | -0.147 |
| AGGTTCCC | -0.257 |
| CAGGACGA | -0.111 |
| CGCTCTAG | -0.249 |
| AAACTGCA | -0.0628 |
| ACGAGAAT | 0.056 |
| CAGTATTA | 0.0764 |
| CTATCCCC | -0.201 |

| Sequence | PBM E-score |
| --- | --- |
| CGCACTAG | -0.0832 |
| AATTGACC | 0.0635 |
| GGGACGCA | -0.381 |
| AACATCCC | 0.0031 |
| CAACCTAC | 0.0861 |
| AAGTAGGG | -0.117 |
| AGGGCCGG | -0.0966 |
| AACTGGGC | -0.174 |
| AACTTTTC | 0.127 |
| GTGCAGCA | -0.231 |
| CATGGGCA | -0.145 |
| AATTCACG | 0.046 |
| CCCGTGGC | -0.283 |
| AATCCAAA | 0.246 |
| GCCACCTA | -0.214 |
| TAGGACAA | -0.0386 |
| GCAAGTGA | -0.122 |
| AGGTTACA | 0.0303 |
| GCTGTTCA | 0.0353 |
| GAATACAC | 0.0877 |
| ACAGAATA | 0.137 |
| GTCTATCA | 0.101 |
| CCGGGGAC | -0.122 |
| ACATGATA | 0.212 |
| ACAGGAAA | 0.145 |

| Sequence | PBM E-score |
| --- | --- |
| ACCTCGAA | 0.0255 |
| ATTAGCCA | -0.0809 |
| ACATTACC | 0.0569 |
| ATTTAAGA | 0.142 |
| ACGTAGCC | -0.309 |
| CCCCTCAA | -0.189 |
| AAGGTGTG | -0.0224 |
| GGGCTTAC | -0.129 |
| ACAGGGCT | -0.334 |
| CTACGTCC | -0.15 |
| GTACCCCA | -0.0663 |
| TCCCAAGA | -0.153 |
| GTAATGCA | -0.0341 |
| ACCTACAC | -0.185 |
| GTGATGAA | 0.0687 |
| GACCGGCA | -0.308 |
| GTAACGCA | 0.021 |
| CCAGAGTC | -0.00662 |
| CCAGCTAA | -0.154 |
| ATGTCTTA | -0.0624 |
| ATTCAGTA | 0.175 |
| ACACGGGT | -0.0709 |
| CACATGAC | -0.137 |
| AATAATGT | 0.235 |
| CGAACGGA | 0.247 |

| Sequence | PBM E-score |
| --- | --- |
| ACAAACAT | 0.208 |
| AAAAGCTG | -0.15 |
| ATAGTGAA | 0.163 |
| CGGACAAC | 0.309 |
| CCCGAGCA | -0.101 |
| GAGTACAA | 0.171 |
| CATACCCG | -0.11 |
| GACATGGC | -0.144 |
| ACACGCCC | -0.0573 |
| GGAATCAA | 0.0788 |
| CCAAGTGC | -0.0206 |
| GACCCGGA | 0.204 |
| AACGCGTA | -0.0498 |
| AGAACACG | 0.186 |
| ACGCCAAC | -0.0818 |
| ACCTTGCC | -0.0123 |
| TGCTGGAA | -0.0478 |
| GGCCGAGA | 0.0849 |
| GTTACTGA | 0.148 |
| CAACACAG | -0.037 |
| GGCGTTGA | -0.134 |
| CGGTTGAG | 0.0963 |
